Drawing on PubChem BioAssay AID463173 (ICCB-Longwood Screening Facility, Harvard Medical School, 2010), this text covers survival for 89 compounds.

Screen size: about 52,000 compounds; about 1,700 (3.3%) were called active. Rule as the data show it: active = survival mostly below about 52% (no sharp cut-off); inactive = mostly above about 56%. The list shows a part of the results.

The test system of the assay is Wild type. In words: growth inhibition of S. aureus wild type versus tarO mutant, primary screen, teichoic acid synthesis inhibitors, RN4220, OD600 (AID 463173). As to conditions: S. aureus RN4220 wild type/DeltatarO growth, OD600, 18 h, hits give low values, screened at 18.75 µg/mL (by protocol).
In the case of `COc1cc(C(=O)N2CCc3c([nH]c4ccccc34)C2c2ccc(F)cc2)cc(OC)c1OC` (centres undefined), the survival is inactive: 132%. `CCC(=O)N1CCc2cc(CNC(=O)Cc3ccc(OC)c(OC)c3)ccc21`: the survival was inactive: 59%.

As to `Cc1ccccc1Cn1cnc2c(oc3ccccc32)c1=O`, the survival was inactive: 79%. For `CCOc1ccccc1CNC(=O)C1CCN(C(=O)N2CCOc3ccc(Cl)cc32)CC1` the value was inactive: 84%. Regarding `CCN(CC)C(=O)Cn1ncc2c([nH]c3ccc(C)cc32)c1=O`, the survival was inactive: 57%. For `COc1ccc(NC(=O)c2ccc3c(c2)N(Cc2cccc(Cl)c2)C(=O)c2ccccc2S3(=O)=O)cc1Cl`, the survival is inactive: 100%.

Regarding `FC(F)(F)c1ccc2c(c1)ncc1c(-c3ccccc3)nn(-c3ccccc3)c12`, the survival was inactive: 125%. In the case of `NC(=O)CN1C(=O)C(O)(CC(=O)/C=C\c2ccccc2)c2ccccc21` (centres undefined) it was inactive: 112%; in that of `Cc1ccc(-n2nc(C(=O)NCc3ccc(F)cc3Cl)c3c4ccccc4n(C)c3c2=O)cc1`, inactive: 124%. For `Cc1cc(C)n2nc(-c3ccc(Cl)cc3)nc2n1`, the survival is inactive: 87%. On to `Cc1cccc(N2CCN(c3nc4ccc(C(=O)c5ccccc5)cc4n4cnnc34)CC2C)c1` (centres undefined), for which the survival was inactive: 67%. Take `COCCNC(=O)c1cc(-c2ccccc2)on1`: the survival is inactive: 96%.

As for `CCOC(=O)c1c(NC(=O)CSc2cn(CCNC(=O)c3ccc(OC)c(OC)c3)c3ccccc23)sc2c1CCC2`, the survival was inactive: 85%.

Take `Cc1cn2c(=O)cc(COC(=O)c3cccc(NC(=O)COc4ccccc4)c3)nc2s1`: the survival was inactive: 47%.

`CC(C)Oc1ccc(CNC(=O)c2ccc(CS(=O)Cc3ccccc3Cl)o2)cc1` (centres undefined): the survival is inactive: 113%.

With `COc1ccc(OC)c(NC(=O)c2oc3c(c2C)-c2nn(Cc4ccc(Cl)cc4)cc2CC3)c1`, the survival is inactive: 119%. Regarding `COC(=O)CN1C(=O)CSc2ccc(S(=O)(=O)Nc3ccccc3)cc21`, the survival is inactive: 81%. Turning to `Cc1cccc(OCCSc2nc3ccc(NC(=O)COc4ccccc4C)cc3s2)c1`, the survival was inactive: 94%. For the compound `CC(CC(=O)Nc1ccccc1)c1ccccc1` (centres undefined), the survival was inactive: 106%.

As for `Cc1ccc2c(CC(=O)N3CCN(c4cccc(Cl)c4)CC3)coc2c1C`, the survival is inactive: 79%. For `CC(=O)Nc1ccc(NC(=O)Cn2cc3c(n2)CCCCC3)cc1` the value was inactive: 122%.

As for `COCCN(Cc1ccco1)C(=O)c1cc2c(Cl)nc3ccc(C)cc3c2s1`, the survival is inactive: 79%.

For the compound `CCN(CC)CCCNC(=O)CSc1nc2nc(C)c(Cc3ccccc3C)c(C)n2n1`, the survival is inactive: 75%. For `COc1ccc(NC(=O)Cn2nc(SC)c(S(=O)(=O)c3ccc(C)cc3)c2N)cc1OC`, the survival was inactive: 19%.

With `O=c1[nH]c2cc3c(cc2cc1CN(CCN1CCOCC1)C(=S)Nc1ccccc1)OCCO3`, the survival was inactive: 109%.

For the compound `COc1ccc(-n2nc(C(=O)NCCCOC(C)C)c3c4ccccc4n(C)c3c2=O)cc1`, the survival is inactive: 78%.

`O=C(O)c1ccc2oc(=O)n(Cc3ccccc3)c2c1`: the survival was inactive: 70%.

As to `O=C(Nc1c(Cl)cccc1Cl)c1cccc2c1C(=O)N(C1CCCCC1)C2`, the survival is inactive: 79%.

For `CCC(=O)N1CCc2cc(Br)cc(S(=O)(=O)CCC(=O)N(C)c3cccc(C)c3)c21`, the survival is inactive: 70%. Regarding `CCOc1ccc(NC(=O)CC2C(=O)N(c3ccc(F)cc3)C(=O)N2CCc2sccc2C)cc1` (centres undefined), the survival was inactive: 73%.

For `O=C(CN(C(=O)c1csnn1)c1ccccc1)NCc1ccc2c(c1)OCO2`, the survival is inactive: 114%. In the case of `COc1ccc(CNc2nc3c(-c4ccc(C)cc4)nnn3c3ccccc23)cc1` it was inactive: 77%; in that of `COc1ccc(C2C(=O)N(C3CCC(C)CC3)CC(=O)N2C2CCCCC2)cc1OC` (centres undefined), inactive: 64%; in that of `Cc1ccc2c(c1)C(O)(C(=O)NC(N)=O)C(=O)N2` (centres undefined), inactive: 114%.

For `Fc1ccccc1N1CCN(c2ncnc3c2nc2n3CCCCC2)CC1`, the survival was inactive: 73%. For `CCCS(=O)(=O)NCCc1csc2nc(-c3ccc(C)cc3)nn12`, the survival was inactive: 76%. In the case of `CS(=O)(=O)Nc1ccccc1C(=O)O` it was inactive: 106%; in that of `Cc1occc1-c1nnc(SCC(=O)NCc2ccc3c(c2)OCO3)n1CC(C)C`, inactive: 108%. `CCOC(=O)c1cc2c(=O)n3ccccc3nc2n(CCCOC)c1=NC(=O)c1c(-c2ccccc2Cl)noc1C`: the survival was inactive: 66%. For `COCCNS(=O)(=O)c1ccc(S(=O)(=O)N2CCCCC2)cc1`, the survival was inactive: 100%.

`Cc1nc2nc(C)c(NS(=O)(=O)c3ccc(F)cc3)c(=O)n2[nH]1`: the survival is inactive: 81%.

As for `Cc1ccccc1OCCCn1c(CCNC(=O)C2CCCCC2)nc2ccccc21`, the survival was inactive: 65%.

Consider `O=C(Cn1cnc(S(=O)(=O)N2CCCC2)c1)Nc1cccc(F)c1`, for which the survival was inactive: 65%. As for `CCOc1ccc(NC(=O)C2CCCN(c3nn4cc(-c5ccc(OC)cc5)nc4s3)C2)cc1` (centres undefined), the survival was inactive: 132%. In the case of `Cc1ccc2c(c1)nnn2C1CCN(CC(=O)N(c2ccccc2)c2ccccc2)CC1`, the survival was inactive: 105%.

For the compound `CC(=O)OC(C(=O)n1nc(C)cc1C)c1ccccc1` (centres undefined), the survival was inactive: 113%. With `Cc1ccc(NC(=O)c2sc3nc4n(c(=O)c3c2C)CCCCC4)c(Br)c1`, the survival was inactive: 82%.

In the case of `CN(C(=O)Cn1c(=O)n(CCC(=O)NCc2ccc3c(c2)OCO3)c(=O)c2sccc21)c1ccccc1`, the survival was inactive: 93%. `Cc1ccc(-n2ncc(C(=O)N3CCN(C4CCCCC4)CC3)c2C2CCN(C(=O)OC(C)(C)C)CC2)cc1C`: the survival was inactive: 80%. For the compound `Cc1cccc(N2CCN(C(=O)CCCn3c(=O)[nH]c4ccsc4c3=O)CC2)c1C`, the survival is inactive: 66%. `CCCCCCc1c(C)c2c(cc(C)c3c(C)c(C)oc32)oc1=O`: the survival is inactive: 114%.

`O=C1CC(c2nc3ccccc3n2CCC2CCCCC2)CN1c1ccccc1Cl` (centres undefined): the survival is active: 32%.

As for `CCCCN(C(=O)Nc1ccc(Cl)cc1)C1CCN(C(C)=O)CC1`, the survival is inactive: 83%.

Regarding `CC(=O)c1cccc(NC(=O)C2=CC(c3ccc(F)cc3)=NS(=O)(=O)N2C)c1`, the survival is inactive: 79%. For `CCNc1nc(SCC(=O)OC)nc(N(C)C)n1`, the survival was inactive: 110%. For `Oc1c(C(c2ccccc2F)N2CCC3(CC2)OCCO3)sc2nc(-c3ccco3)nn12` (centres undefined) the value was inactive: 74%. On to `O=C(CN1CC(=O)Oc2ccccc21)OCC(=O)c1ccc(F)cc1`, for which the survival was inactive: 104%.

Consider `Cc1ccc2onc(CC(=O)N3CCN(c4ccc(Cl)cc4)CC3)c2c1`, for which the survival is inactive: 49%. Consider `CCN(c1ccc(Cl)cc1)S(=O)(=O)c1nnc(NC(=O)c2ccco2)s1`, for which the survival is inactive: 70%.

As to `O=C(NCCc1ccccc1)c1ccc(Cn2c(=O)c3cccn3c3cccnc32)cc1`, the survival was inactive: 78%.

For `COc1ccc(OC)c(CNC(=O)c2ccc(Sc3ccc(Cl)cc3)c(NC(C)=O)c2)c1`, the survival was inactive: 73%.

`CC(C)C(=O)Nc1nncs1`: the survival was inactive: 115%. In the case of `COC(=O)c1cc2oc3ccccc3c2n1CC(=O)Nc1ccc(OC)c(OC)c1` it was inactive: 95%; in that of `O=C(NC1CCCCC1)c1ccc(CSc2nc3ccncc3n2Cc2ccccc2)cc1`, inactive: 96%; in that of `Cc1ccc(NC(=O)Cn2c(=O)n(CCCC(=O)NCc3ccc4c(c3)OCO4)c(=O)c3ccccc32)cc1`, inactive: 97%. As to `CCOc1cc(C2C(C(=O)Nc3ccccc3)=C(C)Nc3ncnn32)cc(Br)c1O` (centres undefined), the survival was inactive: 66%.

Regarding `CCC(C)NC(=O)C1CCN(S(=O)(=O)c2ccc(-n3cnnn3)cc2)CC1` (centres undefined), the survival was inactive: 108%. In the case of `Cc1cc2c(cc1S(=O)(=O)N(CCO)Cc1ccccc1)OCC(=O)N2` it was inactive: 64%; in that of `CCNS(=O)(=O)c1cc(-c2nnc(Nc3cccc(C(F)(F)F)c3)c3ccccc23)ccc1C`, inactive: 68%. `Cc1ccc2cc(C#N)c(SCC(=O)NCc3ccco3)nc2c1`: the survival was inactive: 103%. For `Cc1ccc(C)c(NC(=O)CCS(=O)(=O)c2cccc3nsnc23)c1` the value was inactive: 122%; for `CCc1cccc(CC)c1N(COC)C(=O)Cn1c(CC)nc2ccccc21`, inactive: 74%. On to `Cc1ccc(NC(=O)Cn2c(CCC(=O)O)ccc2-c2cccs2)cc1Cl`, for which the survival was inactive: 77%. For `CC(=O)N1CC=C2C(C#N)=C(N)C(C#N)(C#N)C(CCc3ccccc3)C2C1` (centres undefined) the value was inactive: 114%; for `Cc1ccc(C)c(N2CCN(C(=O)C3CCN(S(=O)(=O)c4ccc5[nH]c(=O)oc5c4)CC3)CC2)c1`, inactive: 76%. On to `CCc1ccc2nc(N3CCN(C(=O)c4ccccc4)CC3)sc2c1`, for which the survival is inactive: 69%.

Take `Cn1c(=O)oc2cc(S(=O)(=O)N3CCCC(C(=O)N4CCN(c5ccc(Cl)cc5)CC4)C3)ccc21` (centres undefined): the survival was inactive: 91%. For `CN(C(=O)CSc1nc2ccc(NC(=O)c3ccccc3F)cc2s1)c1ccccc1` the value was inactive: 110%; for `COC(=O)c1cccc(NC(=O)N(C)CCc2c(C)nn(C)c2C)c1`, inactive: 59%. For the compound `Cc1ccc(CNC(=O)c2cccc(N3CCCS3(=O)=O)c2)cc1`, the survival is inactive: 70%. With `CCc1ccc(-n2nc3ccc(NC(=O)c4cc(Cl)c(OC)c(Cl)c4)cc3n2)cc1`, the survival is inactive: 72%. With `Cc1ccc(NC(=O)CN(CCc2ccccc2)S(=O)(=O)c2ccccc2)c(C)c1`, the survival was inactive: 63%. In the case of `CCOc1ccc(CNC(=O)Cn2nc(C)n3cccc3c2=O)cc1` it was inactive: 96%; in that of `CCOc1ccc(C2C(=O)N(C3CCCCCC3)CC(=O)N2CCC2=CCCCC2)cc1OC` (centres undefined), inactive: 73%; in that of `CCCCn1cc(S(=O)(=O)c2ccc(OCC)cc2)c(=O)c2cc(OC)c(OC)cc21`, inactive: 63%. Consider `CCOc1ccc(N2CC(C)Cn3c2nc2c3c(=O)n(CC(=O)O)c(=O)n2C)cc1` (centres undefined), for which the survival was inactive: 65%. For `COc1cc(N2C(=O)CSC23C(=O)N(C)c2ccccc23)cc(OC)c1OC` (centres undefined), the survival is inactive: 65%. `COc1ccc(CN2CCc3nc(Nc4ccccc4)ncc3C2)c(OC)c1OC`: the survival is inactive: 112%. In the case of `Cc1ccc(CNC(=O)Cn2c(=O)n(Cc3ccccc3)c(=O)c3c2c2cc(C)ccc2n3C)cc1` it was inactive: 74%.
